Source: PMC8053108 (Nucleic Acids Research, 2021)

Target: T1, RPA2 winged-helix domain (RPA2 residues 172–270) (human, UniProt P15927 172-270, MTSL spin label at C219 (in the PRE NMR experiment only))
T1 construct: human RPA2, C-terminal winged-helix domain, residues 172–270; Unlabelled in the uracil excision assays; also called RPA2-WH; WH domain; source: expressed as RPA2-WH-intein fusion (pTYB12) in ZYP-5052 autoinduction medium at 16°C, WH domain purified
Assay: paramagnetic relaxation enhancement (PRE) NMR; 15N-labelled UNG2 (1–93) with 1.5 molar excess of RPA2-WH MTSL-labelled at C219, before and after ascorbic acid; 25°C; 20 mM phosphate buffer pH 7.0, 10 mM NaCl, H2O/D2O 9:1
Settings: both partners purified

T1 sequence (P15927 172-270): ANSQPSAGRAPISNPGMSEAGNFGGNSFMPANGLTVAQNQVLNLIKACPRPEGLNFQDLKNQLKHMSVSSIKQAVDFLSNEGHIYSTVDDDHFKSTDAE

binding result: binds
B1: 15N-labelled UNG2 N-terminal region ([…]) (domain or fragment)
chain: not shown
modifications: uniformly 15N-labelled
notes: human uracil-DNA glycosylase, nuclear isoform UNG2, N-terminal regulatory region, […]; also called N-terminal UNG2; UNG2 N-terminal ([…])
